The source of these data is PMC4336329 (PLoS ONE, 2015).

SMILES strings stand for the structures. In all, about 310,000 compounds went through this assay and about 14,000 (4.5%) showed an effect of 50% or more. Effects have a minus sign here. The list shows a part of the results.
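Note: peak tail current of the secondary pulse compared with the same well before compound.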

The experiment deals with human ether-à-go-go-related gene (hERG) potassium channel (human, UniProt Q12809). The experiment can be described thus: primary screen, population patch clamp on CHO cells stably expressing hERG.
Chain of human ether-à-go-go-related gene (hERG) potassium channel (Q12809 whole entry, looked up): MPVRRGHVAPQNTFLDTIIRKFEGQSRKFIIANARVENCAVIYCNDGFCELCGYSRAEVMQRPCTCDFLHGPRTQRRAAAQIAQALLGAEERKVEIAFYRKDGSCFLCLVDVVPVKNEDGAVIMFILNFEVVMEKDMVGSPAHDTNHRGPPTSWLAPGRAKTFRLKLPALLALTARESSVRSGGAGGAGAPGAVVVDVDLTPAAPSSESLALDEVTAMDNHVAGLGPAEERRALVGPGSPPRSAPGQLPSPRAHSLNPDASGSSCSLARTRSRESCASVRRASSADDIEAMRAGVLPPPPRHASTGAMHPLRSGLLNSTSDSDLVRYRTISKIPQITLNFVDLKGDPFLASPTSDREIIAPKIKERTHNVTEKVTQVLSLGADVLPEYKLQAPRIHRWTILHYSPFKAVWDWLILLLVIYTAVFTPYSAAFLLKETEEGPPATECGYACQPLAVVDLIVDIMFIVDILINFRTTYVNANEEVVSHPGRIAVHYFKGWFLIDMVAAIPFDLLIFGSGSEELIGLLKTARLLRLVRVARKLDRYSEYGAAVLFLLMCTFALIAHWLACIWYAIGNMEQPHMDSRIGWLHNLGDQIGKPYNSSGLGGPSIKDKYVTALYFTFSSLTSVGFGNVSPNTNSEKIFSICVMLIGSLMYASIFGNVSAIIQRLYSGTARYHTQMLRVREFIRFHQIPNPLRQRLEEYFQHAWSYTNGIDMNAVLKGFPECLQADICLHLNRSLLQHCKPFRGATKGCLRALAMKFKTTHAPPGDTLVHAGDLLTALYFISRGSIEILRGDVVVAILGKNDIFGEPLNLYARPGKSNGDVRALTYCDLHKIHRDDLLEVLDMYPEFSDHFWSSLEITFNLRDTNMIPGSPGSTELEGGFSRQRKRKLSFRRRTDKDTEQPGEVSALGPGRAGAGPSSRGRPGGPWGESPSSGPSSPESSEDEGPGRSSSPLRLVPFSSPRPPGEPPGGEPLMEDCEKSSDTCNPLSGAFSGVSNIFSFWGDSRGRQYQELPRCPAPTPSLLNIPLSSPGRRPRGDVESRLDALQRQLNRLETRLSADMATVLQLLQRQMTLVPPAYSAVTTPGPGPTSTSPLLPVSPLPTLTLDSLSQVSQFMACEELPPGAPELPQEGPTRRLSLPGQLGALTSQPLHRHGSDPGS
With `Cc1ncc([N+](=O)[O-])n1CC(=O)Nc1ccc(Cl)cc1`, the “hERG current change (%, negative = inhibition) at 10uM” value is reported as 0.883%. For `O=S(=O)(Nc1cccc(-c2nc3cccnc3s2)c1)c1ccc2c(c1)OCCO2`, the “hERG current change (%, negative = inhibition) at 10uM” value came out at 4.9%. With `COc1ccccc1N1CCN(C2CCN(S(=O)(=O)c3ccc(C)cc3)CC2)CC1` the figure was -36.4%. With `CCCc1ccc(-c2cc(NC(=O)CSc3n[nH]c(N)n3)n(-c3ccccc3)n2)cc1` the figure was 11.4%; with `C/C(=N\NC(N)=O)C1CC(Cc2ccccc2)C(=O)O1` (stereo not drawn), 7.84%. With `O=C(CCc1ccc(O)c(O)c1)N/N=C/c1cc2c(cc1[N+](=O)[O-])OCO2` the figure was 10%; with `COc1c(C(=O)Nc2ccc(Cc3ccncc3)cc2)ccc2ccccc12`, 1.72%; with `Cc1cccc(NC(=O)Nc2ccc(S(=O)(=O)Nc3onc(C)c3C)cc2)c1`, 4.15%. Take `O=C(Cn1nc(-c2ccc(Cl)cc2)ccc1=O)NCC1COCCO1` (stereo not drawn): the “hERG current change (%, negative = inhibition) at 10uM” value amounted to 6.48%. The result for `C=CCNC(=O)COc1ccc(S(=O)(=O)NC2CCCCC2)cc1` reads 2.67%. With `O=C(COC(=O)Cc1c(F)cccc1Cl)NCCC1=CCCCC1` the figure was -7.61%; with `Cc1cccc(N2C(=O)c3cccnc3C2=O)c1`, 12%. With `O=C(CCCCCNC(=O)N1CCn2c1nc1ccccc12)NCc1ccccc1` the figure was -12.3%; with `COc1cc(CNc2ccc(S(N)(=O)=O)cc2)ccc1OCC(=O)NC1CCCCC1`, 25.8%; with `Cc1ccc(S(=O)(=O)c2nc(C)oc2NCc2ccccc2)cc1`, 24.2%.

With `COc1ccc(O)c(C=Nc2cc(C)on2)c1`, the “hERG current change (%, negative = inhibition) at 10uM” value is on record as -0.2%.

As for `CC[C@H]1C2C[C@H]3[C@@H]4N(C)c5ccccc5C45C[C@H](C2[C@H]5O)N3[C@@H]1O` (stereo partly drawn), the “hERG current change (%, negative = inhibition) at 10uM” value is -43.8%.

Regarding `CS(=O)(=O)c1ccccc1C(=O)Nc1ccc(-c2nc3ccccc3o2)cc1`, the “hERG current change (%, negative = inhibition) at 10uM” value worked out at 2.48%. With `CCOC(=O)N1CCN(C(=O)CN(c2cccc(C(F)(F)F)c2)S(C)(=O)=O)CC1` the figure was -51.1%; with `CCCCCC/C=C/c1ccc(OC)c([C@H]2[C@H]3C=CC[C@@H](C)[C@@H]3C(=O)N2Cc2ccccc2)c1`, 11.5%. The result for `COc1ccc(C(=O)N2CCc3cc4c(cc3C2C)OCCCO4)cc1` (stereo not drawn) reads 3.35%; that for `Brc1ccc(OCc2nc3ccccc3[nH]2)cc1`, 13.9%.

`O=C(O)CSCNC(=O)CC12CC3CC(CC(C3)C1)C2`: the “hERG current change (%, negative = inhibition) at 10uM” value is reported as 13.1%. For `COc1ccc(NC(=O)NNS(=O)(=O)c2cc(C)ccc2C)cc1OC`, the “hERG current change (%, negative = inhibition) at 10uM” value came out at 5.36%.

`COc1ccccc1C(=O)NCCC(=O)N1CC=C(c2ccccc2)CC1`: the “hERG current change (%, negative = inhibition) at 10uM” value was -13.4%. The result for `C#CCn1c(O)c(N=NC(=O)CNC(=O)/C=C/c2ccccc2)c2ccccc21` reads -27.4%. With `Cc1sc2ncnc(N3CCC(C(=O)NNC(=O)COc4cccc(C(F)(F)F)c4)CC3)c2c1C` the figure was -40%; with `O=C(c1ccc(Cl)cc1)N1CCOc2ccccc21`, 1.12%. Consider `CCN(CC(=O)Nc1ccc(NC(C)=O)cc1)C(=O)c1ccc(=O)[nH]c1`, for which the “hERG current change (%, negative = inhibition) at 10uM” value came to 15.4%. With `O=C(C1=C[C@@H](C2CC2)C[C@@H](OCc2ccc(CO)cc2)O1)N1CCOCC1` the figure was 15.2%. With `COc1ccc(NC(=O)C2=CC(c3ccc(OC)cc3)=NS(=O)(=O)N2C)cc1`, the “hERG current change (%, negative = inhibition) at 10uM” value is -0.449%. The result for `CCN(CC)S(=O)(=O)c1ccc(N/N=C(\C)c2ccc3c(c2)OCO3)c([N+](=O)[O-])c1` reads 11.6%; that for `CSc1ccc(CCNC(=O)c2cc(C)nn2-c2ccccc2)cc1`, -10.8%. In the case of `COC(=O)c1cc(C)[nH]c2c(C)cc3nc4ccccc4c3c12`, the “hERG current change (%, negative = inhibition) at 10uM” value was 19.7%.

Take `O=C(c1ccc2c3c(cccc13)CC2)C1CCCN(C(=O)c2ccc(=O)[nH]c2)C1` (stereo not drawn): the “hERG current change (%, negative = inhibition) at 10uM” value is listed as 4.99%. As to `NC(=O)C1CCCN(C(=O)c2cccc(S(=O)(=O)N3CCCCCC3)c2)C1` (stereo not drawn), the “hERG current change (%, negative = inhibition) at 10uM” value came to 4.09%. With `CCC(C)N=Cc1c(O)n(-c2ccccc2)c(=O)[nH]c1=O` (stereo not drawn), the “hERG current change (%, negative = inhibition) at 10uM” value is given as 2.37%. The result for `CCc1nnc(NC(=O)CSc2nnc(CNC(=O)c3ccccc3F)n2C)s1` reads 45.3%. With `O=C(O)C1CN(c2nc(Cl)ccc2[N+](=O)[O-])C1` the figure was 12.1%; with `S=C(NCc1ccco1)Nc1ccc(Oc2ccccc2)cc1`, 1.09%; with `Cc1cc(Br)ccc1NC(=S)NC1CCCC1`, -6.93%.

With `O=C(c1ccc(Oc2ccc(C(F)(F)F)cn2)cc1)N1CCN(c2ccccc2)CC1`, the “hERG current change (%, negative = inhibition) at 10uM” value was -43.8%. With `O=C(OCc1nc2ccccc2s1)C1CCN(S(=O)(=O)c2cccs2)CC1` the figure was -42.1%. With `Cc1ccc(C(=O)Nc2cccnc2)cc1[N+](=O)[O-]` the figure was 4.19%.

For `CCc1ccc(C(=O)NNC(=O)CN2C(=O)NC(CC)(c3ccccc3)C2=O)cc1` (stereo not drawn), the “hERG current change (%, negative = inhibition) at 10uM” value is given as -8.15%. With `Cc1cc(N)n(-c2ccccc2C)n1` the figure was 23.7%. With `Cc1cc(C(=O)Nc2ccc(C)c(S(=O)(=O)N3CCOCC3)c2)c(C)o1`, the “hERG current change (%, negative = inhibition) at 10uM” value is -6.59%. With `Cc1ccc(N=C2C(=O)Nc3ccc(C)c(Br)c32)cc1` the figure was 20.7%; with `CCOC(=O)c1cc(NC(=O)Nc2nccs2)c(C)nc1C`, 3.76%; with `CCCN1CCC(NC(=O)Nc2cc(Cl)ccc2OC)CC1`, -19.1%. With `Cc1csc(NC(=O)CSc2nnc3ncccn23)n1` the figure was -14.3%; with `CC1SC(=NC(=O)c2ccco2)NC1=O` (stereo not drawn), -0.94%.

For the compound `CCOC(=O)C1=C(C)NC(=O)NC1c1ccc(OC)c(Cl)c1` (stereo not drawn), the “hERG current change (%, negative = inhibition) at 10uM” value was -16.3%. With `CC(C)C(=O)Nc1nc(-c2ccc([N+](=O)[O-])cc2)cs1` the figure was 7.04%; with `CSCC[C@H](NC(=O)NCc1cccs1)C(=O)O`, -10.4%.

Consider `COc1ccc(CNc2ccc(Cl)cc2)cc1Cn1ccnc1`, for which the “hERG current change (%, negative = inhibition) at 10uM” value was -20.3%. With `O=C(NC(=S)N1CCOCC1)C12CCC3CC(CC(C3)C1)C2` the figure was 16.2%; with `Cc1cc(C[n+]2ccsc2N)c2ncccc2c1.[Br-]`, -48.2%; with `COc1ccc(-n2cnc3cc(C(=O)NCCN4CCOCC4)ccc32)cc1`, -23.8%. The result for `COc1cccc(C2C(C(=O)OC(C)C)=C(C)Nc3ncnn32)c1` (stereo not drawn) reads -9.09%. With `CC(C)(C)c1ccc(NC(=O)Nc2ccc(OCC(=O)N3CCOCC3)cc2)cc1` the figure was -10.2%; with `Cc1nc2ccc(S(=O)(=O)NC(C(=O)Nc3nc4ccc(Cl)cc4s3)C(C)C)cc2s1` (stereo not drawn), 0.0384%; with `Cc1cnc(N2C(=O)c3ccc([N+](=O)[O-])cc3C2=O)s1`, 21.3%. `Cc1occc1C(=O)Nc1nnc(-c2ccncc2)s1`: the “hERG current change (%, negative = inhibition) at 10uM” value stood at 2.12%. With `CC1=CCC(C(C)(C)NC(=O)c2ccccc2)C/C1=N\O` (stereo not drawn) the figure was -12.4%. In the case of `O=C(NNC1=NCCC1)c1cccc(S(=O)(=O)N2CCCCC2)c1`, the “hERG current change (%, negative = inhibition) at 10uM” value was 21.1%. With `CCOc1ccccc1-c1nc(C(N)=O)c2[nH]c(=O)n(-c3ccccc3)c2n1` the figure was 13.4%; with `COc1cccc(NS(=O)(=O)c2ccc3c(c2)CCCN3C(C)=O)c1`, -7.1%. As for `CC1CCCN(C(=O)C2(NC(=O)Nc3cccc(F)c3)CCCCC2)C1` (stereo not drawn), the “hERG current change (%, negative = inhibition) at 10uM” value is reported as 6.43%.

For `CCC(=O)N1CCc2cc(S(=O)(=O)NC(C(=O)NCc3ccc(C)cc3)C(C)C)ccc21` (stereo not drawn), the “hERG current change (%, negative = inhibition) at 10uM” value is given as 3.13%. With `COc1ccc(C2=NC(=O)/C(=C\c3cc(OC)c(OC)c(OC)c3)O2)cc1` the figure was 8.26%; with `Cc1nc2nc(C)c(NS(=O)(=O)c3ccc4c(c3)CCCC4)c(=O)n2[nH]1`, 13.6%. `O=C(CCC(=O)N1CCOc2ccc(Cl)cc21)NCCCN1CCOCC1`: the “hERG current change (%, negative = inhibition) at 10uM” value was 6.57%. With `CC(/C=N/NC(=O)c1ccncc1)=C\c1ccco1` the figure was 34.7%; with `CCOC(=O)N1CCN(C(=O)/C=C/c2ccc(OC)c(OC)c2)CC1`, 8.05%; with `Cc1cccc(NS(=O)(=O)c2c(C)n[nH]c2C)c1`, -0.407%. With `Cc1ccc(C(=O)Nc2cccc([N+](=O)[O-])c2)cc1S(=O)(=O)Nc1ccc(NC(=O)c2ccccc2)cc1` the figure was 3.23%; with `O=C(C1=C[C@@H](c2ccc(Br)cc2)C[C@@H](OCCCCO)O1)N1CCOCC1`, -15.7%; with `Cc1cc(O)c(C(C)C)cc1NC(=O)Nc1cccc2ccccc12`, 14.3%. As for `CCCNC(=O)Nc1cc(OC)c(OC)cc1Cc1nccc2cc(OC)c(OC)cc12`, the “hERG current change (%, negative = inhibition) at 10uM” value was -10.9%.

In the case of `Cc1ccc(C(=O)CSc2ccc(-c3cccnc3)nn2)cc1`, the “hERG current change (%, negative = inhibition) at 10uM” value is recorded as -2.06%.

Regarding `CSc1nc2c(c(C(F)(F)F)n1)CC(C)CC2` (stereo not drawn), the “hERG current change (%, negative = inhibition) at 10uM” value is recorded as 20%. The result for `Cc1cc2c(cc1S(=O)(=O)N(C)c1ccccc1)NC(=O)CO2` reads -0.364%; that for `Cc1cccc2cc(CN(Cc3cccs3)S(=O)(=O)c3ccc4c(c3)OCCO4)c(=O)[nH]c12`, 1.41%; that for `O=C(Nc1cc(SCCO)cc([N+](=O)[O-])c1)c1ccco1`, -16.4%. With `O=C(Nc1ccccc1Cl)c1cccc(NC(=O)C2C3CC4OC(=O)C2C4C3)c1` (stereo not drawn) the figure was -3.6%; with `CC(C)C(=O)N1CCN(CCN=CC2=C(O)CC(c3ccco3)CC2=O)CC1` (stereo not drawn), 0.717%.
